# Measurements: PubChem BioAssay AID488969 (Vanderbilt High Throughput Screening Facility, 2010)
# In all, about 110,000 compounds were measured (“z-score”: median about -0.1, highest 2% from about 2 on). Some of the results follow. The source made the active and inactive calls.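 How the source made its calls: active means z-score in the third read window above 3 or below -3; inactive means the rest.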
# Molecular target: Metabotropic glutamate receptor 8 (Rattus norvegicus) (UniProt P70579)
# Assay: rat mGluR8 modulators via GIRK flux, primary screen, cell-based, thallium flux, HTS (AID 488969)
# Conditions: HEK293 rat mGluR8, GIRK (G protein-gated inwardly rectifying potassium channel) thallium flux, FluoZin2; at 10 µM; stronger effect = higher value; submaximal glutamate (EC20) added with thallium
# Sequence of UniProt P70579 (P70579 whole entry, looked up): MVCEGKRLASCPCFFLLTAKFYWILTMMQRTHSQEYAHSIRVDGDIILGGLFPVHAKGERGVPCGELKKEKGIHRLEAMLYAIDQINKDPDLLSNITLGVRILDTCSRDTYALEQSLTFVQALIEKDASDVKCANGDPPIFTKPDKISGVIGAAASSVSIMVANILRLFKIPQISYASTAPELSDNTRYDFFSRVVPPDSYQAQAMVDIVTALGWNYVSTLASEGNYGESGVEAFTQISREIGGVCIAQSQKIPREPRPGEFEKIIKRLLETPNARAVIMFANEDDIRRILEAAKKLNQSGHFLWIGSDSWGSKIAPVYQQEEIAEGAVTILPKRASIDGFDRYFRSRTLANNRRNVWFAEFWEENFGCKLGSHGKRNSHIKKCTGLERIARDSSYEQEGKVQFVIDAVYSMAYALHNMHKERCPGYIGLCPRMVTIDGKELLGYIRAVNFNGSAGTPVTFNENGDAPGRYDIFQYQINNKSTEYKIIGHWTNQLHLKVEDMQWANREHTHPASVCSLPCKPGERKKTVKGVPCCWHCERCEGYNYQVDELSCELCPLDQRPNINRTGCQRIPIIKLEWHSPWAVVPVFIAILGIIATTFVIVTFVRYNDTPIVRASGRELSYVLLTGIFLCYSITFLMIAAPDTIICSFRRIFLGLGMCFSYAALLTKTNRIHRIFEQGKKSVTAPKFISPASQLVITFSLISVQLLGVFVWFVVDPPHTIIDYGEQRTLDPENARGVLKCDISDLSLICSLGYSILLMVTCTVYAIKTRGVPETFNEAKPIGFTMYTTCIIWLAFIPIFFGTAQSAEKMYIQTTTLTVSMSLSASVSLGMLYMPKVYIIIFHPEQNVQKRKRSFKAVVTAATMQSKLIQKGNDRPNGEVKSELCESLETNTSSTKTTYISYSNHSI
row,SMILES,z-score
1,CSc1ccc(Cc2ccc(Cl)cc2Cl)nn1,-0.154
2,COc1ccc(CCNC(=O)c2ccncc2)cc1OC,-0.0662
3,O=C(Nc1ccccc1)C1=C(O)CC(c2ccco2)CC1=Nc1ccccc1 (stereo unspecified),-0.41
4,Cc1ccc(OCC2Cn3c(nc4c3c(=O)n(C)c(=O)n4C)O2)cc1 (stereo unspecified),0.826
5,CC12CCC(C(=O)n3c1nc1ccccc13)C2(C)C (stereo unspecified),-1.56
6,O=C(COc1ncnc2ccccc12)NCc1ccc2c(c1)OCO2,0.256
7,C/C(=N\NC(=O)COc1ccc(C(C)(C)C)cc1)c1ccc(N2CCOCC2)cc1,-0.104
8,O=C(c1ccccc1)c1nn(-c2ccccc2)c(=O)cc1C(F)(F)F,-0.379
9,CC(=O)c1ccc(NC(=S)NC(NC(=O)c2ccco2)C(Cl)(Cl)Cl)cc1 (stereo unspecified),0.179
10,CCCCCCCC(=O)NN1CCOCC1,0.0256
11,N#Cc1c2n(cnc1=O)CCCCC2,0.382
12,CCC(=O)NC1=C(NC(C)c2ccccc2)C(=O)c2ccccc2C1=O (stereo unspecified),-0.128
13,Cn1c(=O)[nH]c(=O)c2c1nc(NCc1ccco1)n2CCCc1ccccc1,-0.11
14,CCN1C(=O)CC(N2CCN(C(c3ccccc3)c3ccccc3)CC2)C1=O (stereo unspecified),-0.246
15,O=C(O)c1ccc(CS(=O)c2cccc(C(F)(F)F)c2)o1 (stereo unspecified),0.152
16,CC1(C)C(=O)OC(c2cccn2-c2ccc([N+](=O)[O-])cc2)C(C)(C)C1=O (stereo unspecified),-0.471
17,COc1ccccc1CNC(=O)COC(=O)c1cc(-c2ccco2)nc2ccccc12,0.528
18,O=C(c1cc(-c2ccco2)on1)N1CCc2ccccc2C1,-0.364
19,COC(=O)c1ccc(CSc2nc3ccccc3c(=O)n2Cc2ccco2)o1,-0.977
20,CCOC(=O)c1c(-c2ccc(F)cc2)cn2ccccc12,-0.00825
21,CC1=C(C#N)C2C(/C1=N/O)C2(C)C (stereo unspecified),-0.347
22,CCc1nccn1C(=O)c1cnn2c(C(F)F)cc(-c3ccc(C)cc3)nc12,-0.0768
23,COc1ccc(/C=N/n2cnnc2SCCO)cc1OC,1.38
24,CC(C)(C)c1ccc(Cn2ccc(-c3ccc4c(c3)OCO4)n2)cc1,0.161

row,SMILES,z-score
1,O=C1/C(=C/N(C(=O)c2ccco2)c2ccc(Br)cc2)Sc2ccccc21,0.116
2,O=Nc1c(O)n(Cc2ccc(Cl)cc2Cl)c2ccccc12,-0.436
3,COc1ccc(N(C(=O)CSCC(=O)Nc2cc(C)on2)C(C(=O)NC2CCCCC2)c2ccc(O)c(O)c2)cc1 (stereo unspecified),-0.354
4,O=C(C1CCCO1)N1CCN(C(=S)Nc2ccccc2F)CC1 (stereo unspecified),-0.183
5,CCS(=O)(=O)N1Cc2ccccc2CC1C(=O)N1CCN(c2ccccc2)CC1 (stereo unspecified),-0.0819
6,CN1CCN(S(=O)(=O)c2ccc(NC(=S)NC(=O)c3ccc(Cl)cc3)cc2)CC1,0.183
7,O=C(c1ccc(-c2nnc(Nc3ccccc3)c3ccccc23)cc1)N1C[C@H]2C[C@H](C1)c1cccc(=O)n1C2,-0.314
8,C=CCN1C(=O)/C(=C2/Sc3ccccc3N2C)SC1=Nc1c(C)n[nH]c1C,active: 3.97
9,Cc1cccc(C(=O)NC(=S)NNC(=O)c2cccs2)c1,active: 5.42
10,COc1cc(C2=NOC(C(=O)NCc3ccco3)C2)cc(OC)c1OC (stereo unspecified),0.0251
11,CC(C(=O)Nc1cccnc1)N1C(=O)c2ccccc2C1=O (stereo unspecified),-0.0959
12,CCc1cccc(OCCCCNCCCOC)c1,0.0451
13,C=CCn1c(N)c(C(=O)NCC2CCCO2)c2nc3ccccc3nc21 (stereo unspecified),-2.15
14,O=C(NC(=S)Nc1ccccc1N1CCCCC1)c1ccco1,active: 5.87
15,COc1ccccc1-n1c(SCC(N)=O)nnc1-c1ccc(S(=O)(=O)N2CCCCC2)cc1,-1.6
16,COc1ccc([N+](=O)[O-])cc1N(CC(=O)NCC1CCCO1)S(C)(=O)=O (stereo unspecified),-0.312
17,O=C(CC(c1ccccc1)c1cc(Br)ccc1O)NCCN1CCOCC1 (stereo unspecified),-0.0663
18,O=C(Nc1ccc(Cl)cc1)N1CCCC1,-0.318
19,NC(=O)CSC1=Nc2ccccc2C2=NC(CCC(=O)NCc3ccc(F)cc3)C(=O)N12 (stereo unspecified),0.0977
20,CCc1ccc(N2CC(C(=O)Nc3cc(C)ccc3F)CC2=O)cc1 (stereo unspecified),-0.82
21,O=C(NCCc1ccc(Cl)cc1)C1CC(=O)N(C2CCCCC2)C1 (stereo unspecified),0.179
22,CC(C)(C)n1nc2c(c1NC(=O)c1ccco1)CS(=O)C2 (stereo unspecified),0.0777
23,CCCCNC(=S)Nc1ccc([N+](=O)[O-])cc1,2
24,O=[N+]([O-])c1ccccc1-c1nc(-c2ccc(Br)o2)no1,-0.0756

row,SMILES,z-score
1,O=C1CC(N(O)c2ccccc2)C(=O)N1c1cc(Cl)cc(Cl)c1 (stereo unspecified),-0.788
2,CC(=O)Nc1cccc(-c2csc(Nc3ccccn3)n2)c1,-0.112
3,COc1cc(C(C)=O)ccc1COc1ccc(C(=O)OCC(=O)NC(C)(C)C)cc1OC,-0.573
4,CC(=O)c1cc(C#N)c(SCc2ccccc2C#N)nc1C,0.092
5,Cc1cc(C)c(C2=NOC3C4CCC(C4)C23)c(C)c1 (stereo unspecified),-0.0502
6,CCN=C1SC(C(=O)Nc2ccccc2)CC(=O)N1CC (stereo unspecified),0.0876
7,CN1C(=O)CC(n2c(CO)nc3ccccc32)C1=O (stereo unspecified),0.113
8,O=C(CC(c1ccccc1)c1ccccc1)OCn1nnc2ccccc2c1=O,0.00482
9,COc1cc(NC(=S)Nc2ccc(Br)cc2Cl)c(OC)cc1Cl,1.2
10,Cc1sc(NC(=O)c2ccccc2)c(C#N)c1-c1ccccc1,0.642
11,O=c1[nH]c(CSc2nnc(-c3ccncc3)n2Cc2ccco2)nc2ccccc12,0.12
12,CCOc1ccc(NC(=O)CN(c2ccc(OC)cc2)S(C)(=O)=O)cc1,-0.128
13,CCOc1cccc(-c2nn3c(-c4ccco4)nnc3s2)c1,-2.8
14,CCc1nccn1S(=O)(=O)c1ccc(OC)c(C)c1C,-0.0989
15,Cc1occc1C(=O)NC1CCCc2ccccc21 (stereo unspecified),-0.0364
16,CCOC(=O)c1ccc(Oc2c(C)oc3cc(OS(C)(=O)=O)ccc3c2=O)cc1,-0.214
17,CC12CC(NC(=O)N1c1cccc(C(=O)N3CCN(c4ccccn4)CC3)c1)c1ccccc1O2 (stereo unspecified),-0.723
18,CCCCNC(=O)c1onc(CSc2cc(C)ccc2C)c1C(=O)O,-0.194
19,COC(=O)c1nnn(CC(=O)Nc2ccc(C)c(F)c2)c1C(=O)OC,0.151
20,CCOC(=O)c1cccc(-n2c(C)cc(C=O)c2C)c1,-2.64
21,CC(C)OCCCNC(=O)CN1C(=O)/C(=C/c2ccccc2)Sc2ccccc21,-0.569
22,CCOC(=O)c1ccc(NC(=O)Nc2cc(C)on2)cc1,-0.524
23,Cc1cc(Sc2nccn2C)ncc1[N+](=O)[O-],-0.3
